Measured values published in PMC11412900 (Molecular Psychiatry, 2024).

Columns and labels:
human 5-HT2AR [1] = molecular target: T1, human 5-HT2AR (Homo sapiens, UniProt P28223); settings: for 5-HT2AR calcium mobilization Emax ± SD: percentage of response to 5-HT 10^−4 M; for EC50: read-out: 5-HT2AR calcium mobilization EC50 ± SD, CHO/K1 h5-HT2AR
human 5-HT2AR [2] = molecular target: T1, human 5-HT2AR; test: cell-based; settings: CHO-K1, read-out: 5-HT2AR calcium mobilization Emax ± SD

T1 sequence (P28223 whole entry): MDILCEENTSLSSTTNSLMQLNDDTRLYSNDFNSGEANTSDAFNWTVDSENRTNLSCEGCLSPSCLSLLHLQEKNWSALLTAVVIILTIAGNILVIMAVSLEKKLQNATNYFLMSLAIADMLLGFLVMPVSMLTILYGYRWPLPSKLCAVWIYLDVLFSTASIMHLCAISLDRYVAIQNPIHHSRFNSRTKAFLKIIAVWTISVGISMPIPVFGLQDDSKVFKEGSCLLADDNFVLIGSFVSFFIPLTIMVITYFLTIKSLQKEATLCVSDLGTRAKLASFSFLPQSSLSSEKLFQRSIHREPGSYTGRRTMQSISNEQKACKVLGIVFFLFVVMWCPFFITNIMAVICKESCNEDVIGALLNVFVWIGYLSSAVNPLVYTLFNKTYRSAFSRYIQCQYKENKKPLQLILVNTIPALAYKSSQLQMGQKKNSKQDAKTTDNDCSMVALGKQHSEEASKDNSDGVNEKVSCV

Row | SMILES | 5-HT2AR agonist type (human 5-HT2AR [1]) | 5-HT2AR calcium mobilization Emax ± SD (human 5-HT2AR [1]) | EC50 (human 5-HT2AR [1]) | Emax (human 5-HT2AR [2])
1 | NCCc1c[nH]c2ccc(O)cc12 [5-HT, reference compound] | full agonist | – | – | –
2 | C=CCN(CC=C)CCc1c[nH]c2ccc(OC)cc12 [5-MeO-DALT] | – | 99 ± 2 %5-HT | 11.3 ± 3.3 nM | –
3 | CCN(CC)CCc1c[nH]c2ccc(OC)cc12 [5-MeO-DET] | – | 102 ± 7 %5-HT | 17.1 ± 5.1 nM | –
4 | COc1ccc2[nH]cc(CCN(C(C)C)C(C)C)c2c1 [5-MeO-DIPT, 5-methoxy-N,N-diisopropyltryptamine] | – | – | – | 99%
5 | COc1ccc2[nH]cc(CCN(C)C)c2c1 [5-MeO-DMT, 5-methoxy-N,N-dimethyltryptamine] | – | – | – | 100%
6 | CCN(CCc1c[nH]c2ccc(OC)cc12)C(C)C [5-MeO-EIPT] | – | 103 ± 4 %5-HT | 23.6 ± 1.6 nM | –
7 | C=CCN(C)CCc1c[nH]c2ccc(OC)cc12 [5-MeO-MALT] | – | 99 ± 9 %5-HT | 4.95 ± 0.47 nM | –
8 | CCN(C)CCc1c[nH]c2ccc(OC)cc12 [5-MeO-MET] | – | 102 ± 5 %5-HT | 4.46 ± 0.06 nM | –
9 | COc1ccc2[nH]cc(CCN(C)C(C)C)c2c1 [5-MeO-MIPT] | – | 96 ± 1 %5-HT | 5.88 ± 2.39 nM | –
10 | COc1ccc2[nH]cc(CCNC(C)C)c2c1 [5-MeO-NIPT] | – | 91 ± 1 %5-HT | 13.2 ± 3.6 nM | –
11 | COc1ccc2[nH]cc(CCN3CCCC3)c2c1 [5-MeO-pyr-T] | – | 92 ± 4 %5-HT | 13.5 ± 2.2 nM | –
12 | NCCc1ccc(O)c(O)c1 [dopamine, reference compound] | partial agonist | – | – | –
